Residue numbers refer to the chain shown, from its start. The list shows a part of the results.

T1: RBFOX1 RRM (Homo sapiens, UniProt Q9NWB1 109-208)
T1 sequence: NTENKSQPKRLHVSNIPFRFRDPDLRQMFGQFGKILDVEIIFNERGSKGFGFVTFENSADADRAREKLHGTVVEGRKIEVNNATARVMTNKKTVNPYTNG

B1: UGAACUA (DNA:RNA)
RNA: GGGAGACCGGAAUUCAGAUUGUCCUGAACUAUUAAAUCCCGUCGUAGCCACCA
DNA 1: CAATCTGAATTCCGGTCTCCC
DNA 2: TGGTGGCTACGACGGGATT
B2: ACGGCUA (DNA:RNA)
RNA: B1 RNA with U25A, G26C, A27G, A28G
DNA 1: CAATCTGAATTCCGGTCTCCC
DNA 2: TGGTGGCTACGACGGGATT
B3: AAGCCGG (DNA:RNA)
RNA: B1 RNA with U25A, G26A, A27G, A28C, U30G, A31G
DNA 1: CAATCTGAATTCCGGTCTCCC
DNA 2: TGGTGGCTACGACGGGATT
B4: GAUCGCG (DNA:RNA)
RNA: GGGAGACCGGAAUUCAGAUUGUCCGAUCGCGUUAAAUCCCGUCGUAGCCACCA
DNA 1: CAATCTGAATTCCGGTCTCCC
DNA 2: TGGTGGCTACGACGGGATT
B5: CACGAGC (DNA:RNA)
RNA: B4 RNA with G25C, U27C, C28G, G29A, C30G, G31C
DNA 1: CAATCTGAATTCCGGTCTCCC
DNA 2: TGGTGGCTACGACGGGATT
B6: UGAGUAC (DNA:RNA)
RNA: B1 RNA with A28G, C29U, U30A, A31C
DNA 1: CAATCTGAATTCCGGTCTCCC
DNA 2: TGGTGGCTACGACGGGATT
B7: CGGCCGA (DNA:RNA)
RNA: B1 RNA with U25C, A27G, A28C, U30G
DNA 1: CAATCTGAATTCCGGTCTCCC
DNA 2: TGGTGGCTACGACGGGATT
B8: GUGGACU (DNA:RNA)
RNA: B4 RNA with A26U, U27G, C28G, G29A, G31U
DNA 1: CAATCTGAATTCCGGTCTCCC
DNA 2: TGGTGGCTACGACGGGATT
B9: ACUACCU (DNA:RNA)
RNA: B4 RNA with G25A, A26C, C28A, G29C, G31U
DNA 1: CAATCTGAATTCCGGTCTCCC
DNA 2: TGGTGGCTACGACGGGATT
B10: AUUUGGG (DNA:RNA)
RNA: B4 RNA with G25A, A26U, C28U, C30G
DNA 1: CAATCTGAATTCCGGTCTCCC
DNA 2: TGGTGGCTACGACGGGATT
B11: UAGCAAC (DNA:RNA)
RNA: B4 RNA with G25U, U27G, G29A, C30A, G31C
DNA 1: CAATCTGAATTCCGGTCTCCC
DNA 2: TGGTGGCTACGACGGGATT
B12: UGACGGC (DNA:RNA)
RNA: B1 RNA with A28C, C29G, U30G, A31C
DNA 1: CAATCTGAATTCCGGTCTCCC
DNA 2: TGGTGGCTACGACGGGATT
B13: GGACAUG (DNA:RNA)
RNA: B4 RNA with A26G, U27A, G29A, C30U
DNA 1: CAATCTGAATTCCGGTCTCCC
DNA 2: TGGTGGCTACGACGGGATT
B14: CGGCGAA (DNA:RNA)
RNA: B4 RNA with G25C, A26G, U27G, C30A, G31A
DNA 1: CAATCTGAATTCCGGTCTCCC
DNA 2: TGGTGGCTACGACGGGATT
B15: CGCAGUA (DNA:RNA)
RNA: B1 RNA with U25C, A27C, C29G
DNA 1: CAATCTGAATTCCGGTCTCCC
DNA 2: TGGTGGCTACGACGGGATT
B16: UGCGUGU (DNA:RNA)
RNA: B1 RNA with A27C, A28G, C29U, U30G, A31U
DNA 1: CAATCTGAATTCCGGTCTCCC
DNA 2: TGGTGGCTACGACGGGATT
B17: UUGGACU (DNA:RNA)
RNA: B4 RNA with G25U, A26U, U27G, C28G, G29A, G31U
DNA 1: CAATCTGAATTCCGGTCTCCC
DNA 2: TGGTGGCTACGACGGGATT
B18: GUUGCCG (DNA:RNA)
RNA: B4 RNA with A26U, C28G, G29C
DNA 1: CAATCTGAATTCCGGTCTCCC
DNA 2: TGGTGGCTACGACGGGATT
B19: UACCAAA (DNA:RNA)
RNA: B4 RNA with G25U, U27C, G29A, C30A, G31A
DNA 1: CAATCTGAATTCCGGTCTCCC
DNA 2: TGGTGGCTACGACGGGATT
B20: UCAUAGA (DNA:RNA)
RNA: B1 RNA with G26C, A28U, C29A, U30G
DNA 1: CAATCTGAATTCCGGTCTCCC
DNA 2: TGGTGGCTACGACGGGATT
B21: CAGUCGC (DNA:RNA)
RNA: B4 RNA with G25C, U27G, C28U, G29C, C30G, G31C
DNA 1: CAATCTGAATTCCGGTCTCCC
DNA 2: TGGTGGCTACGACGGGATT
B22: CCCACGU (DNA:RNA)
RNA: B1 RNA with U25C, G26C, A27C, U30G, A31U
DNA 1: CAATCTGAATTCCGGTCTCCC
DNA 2: TGGTGGCTACGACGGGATT
B23: CGCCCGU (DNA:RNA)
RNA: B1 RNA with U25C, A27C, A28C, U30G, A31U
DNA 1: CAATCTGAATTCCGGTCTCCC
DNA 2: TGGTGGCTACGACGGGATT
B24: CAAGCUC (DNA:RNA)
RNA: B1 RNA with U25C, G26A, A28G, A31C
DNA 1: CAATCTGAATTCCGGTCTCCC
DNA 2: TGGTGGCTACGACGGGATT
B25: UAUAUGU (DNA:RNA)
RNA: B4 RNA with G25U, C28A, G29U, C30G, G31U
DNA 1: CAATCTGAATTCCGGTCTCCC
DNA 2: TGGTGGCTACGACGGGATT
B26: AUAGUUC (DNA:RNA)
RNA: B1 RNA with U25A, G26U, A28G, C29U, A31C
DNA 1: CAATCTGAATTCCGGTCTCCC
DNA 2: TGGTGGCTACGACGGGATT
B27: AGUUCGC (DNA:RNA)
RNA: B1 RNA with U25A, A27U, A28U, U30G, A31C
DNA 1: CAATCTGAATTCCGGTCTCCC
DNA 2: TGGTGGCTACGACGGGATT
B28: GCAACAC (DNA:RNA)
RNA: B1 RNA with U25G, G26C, U30A, A31C
DNA 1: CAATCTGAATTCCGGTCTCCC
DNA 2: TGGTGGCTACGACGGGATT
B29: GACGUCC (DNA:RNA)
RNA: B4 RNA with U27C, C28G, G29U, G31C
DNA 1: CAATCTGAATTCCGGTCTCCC
DNA 2: TGGTGGCTACGACGGGATT
B30: ACGAGCC (DNA:RNA)
RNA: B4 RNA with G25A, A26C, U27G, C28A, G31C
DNA 1: CAATCTGAATTCCGGTCTCCC
DNA 2: TGGTGGCTACGACGGGATT
B31: GGACAGC (DNA:RNA)
RNA: B4 RNA with A26G, U27A, G29A, C30G, G31C
DNA 1: CAATCTGAATTCCGGTCTCCC
DNA 2: TGGTGGCTACGACGGGATT

For the assay, the target named is T1, RBFOX1 RRM. The assay is described as follows: EMSA; HiTS-Eq, 1 nM pool, 10 min; buffer printed only for the single-RNA assays: 10 mM Tris pH 7.5, 150 mM NaCl, 3.4 mM EDTA, 0.001% NP-40, 30 C. The settings on record: tags: His6 N-terminal (pET28a); label: 5' 32P. In outline: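 A pool of RNA with 7 randomized nucleotides, 5′-radiolabelled and with DNA-annealed flanks, was equilibrated at 1 nM for 10 min in 50 µL with purified RbFox RRM, wild type or mutant, across increasing protein concentrations. Free RNA was separated by 8% native PAGE, excised, reverse-transcribed, barcoded by PCR and sequenced. Relative association constants were obtained from read-count changes of each RNA species versus the control reaction and normalised to the cognate motif.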
In general terms: In EMSA bound probe runs differently from free probe, usually more slowly.
As to B1, the binding signal was 0.00779 KA relative to UGCAUGU.
Next, B2: 0.0107 KA relative to UGCAUGU; B3: 0.00316 KA relative to UGCAUGU.
Turning to B4, the binding signal is 0.0133 KA relative to UGCAUGU.
The same measure for B5: 0.00712 KA relative to UGCAUGU; for B6: 0.0151 KA relative to UGCAUGU.
In the case of B7, the binding signal is 0.0175 KA relative to UGCAUGU.
As for B8, the binding signal is 0.0138 KA relative to UGCAUGU.
The same measure for B9: 0.000318 KA relative to UGCAUGU; for B10: 0.00492 KA relative to UGCAUGU.
Regarding B11, the binding signal was 0.0121 KA relative to UGCAUGU.
Next, B12: 0.0181 KA relative to UGCAUGU.
For B13, the binding signal is 0.0229 KA relative to UGCAUGU.
Next, B14: 0.0142 KA relative to UGCAUGU; B15: 0.00671 KA relative to UGCAUGU; B16: 0.0418 KA relative to UGCAUGU.
The same measure for B17: 0.00509 KA relative to UGCAUGU.
The same measure for B18: 0.0171 KA relative to UGCAUGU; for B19: 0.000955 KA relative to UGCAUGU.
For B20, the binding signal was 0.00755 KA relative to UGCAUGU.
Regarding B21, the binding signal was 0.00829 KA relative to UGCAUGU.
Next, B22: 0.0062 KA relative to UGCAUGU; B23: 0.0143 KA relative to UGCAUGU; B24: 0.00414 KA relative to UGCAUGU.
Next, B25: 0.0165 KA relative to UGCAUGU; B26: 0.00888 KA relative to UGCAUGU; B27: 0.0143 KA relative to UGCAUGU.
The same measure for B28: 0.00714 KA relative to UGCAUGU; for B29: 0.0106 KA relative to UGCAUGU; for B30: 0.0049 KA relative to UGCAUGU.
B31: the binding signal was 0.0294 KA relative to UGCAUGU.

(Values after paper PMC9911399, “Two distinct binding modes provide the RNA-binding protein RbFox with extraordinary sequence specificity”.)
